# Screen size: about 310,000 compounds; about 2,200 (0.71%) showed an effect of 50% or more. Effects have a minus sign here. Some of the results follow.
# Molecular target: human ether-à-go-go-related gene (hERG) potassium channel (human, UniProt Q12809)
# Assay: primary screen, population patch clamp on CHO cells stably expressing hERG
# Sequence of human ether-à-go-go-related gene (hERG) potassium channel (Q12809 whole entry, looked up): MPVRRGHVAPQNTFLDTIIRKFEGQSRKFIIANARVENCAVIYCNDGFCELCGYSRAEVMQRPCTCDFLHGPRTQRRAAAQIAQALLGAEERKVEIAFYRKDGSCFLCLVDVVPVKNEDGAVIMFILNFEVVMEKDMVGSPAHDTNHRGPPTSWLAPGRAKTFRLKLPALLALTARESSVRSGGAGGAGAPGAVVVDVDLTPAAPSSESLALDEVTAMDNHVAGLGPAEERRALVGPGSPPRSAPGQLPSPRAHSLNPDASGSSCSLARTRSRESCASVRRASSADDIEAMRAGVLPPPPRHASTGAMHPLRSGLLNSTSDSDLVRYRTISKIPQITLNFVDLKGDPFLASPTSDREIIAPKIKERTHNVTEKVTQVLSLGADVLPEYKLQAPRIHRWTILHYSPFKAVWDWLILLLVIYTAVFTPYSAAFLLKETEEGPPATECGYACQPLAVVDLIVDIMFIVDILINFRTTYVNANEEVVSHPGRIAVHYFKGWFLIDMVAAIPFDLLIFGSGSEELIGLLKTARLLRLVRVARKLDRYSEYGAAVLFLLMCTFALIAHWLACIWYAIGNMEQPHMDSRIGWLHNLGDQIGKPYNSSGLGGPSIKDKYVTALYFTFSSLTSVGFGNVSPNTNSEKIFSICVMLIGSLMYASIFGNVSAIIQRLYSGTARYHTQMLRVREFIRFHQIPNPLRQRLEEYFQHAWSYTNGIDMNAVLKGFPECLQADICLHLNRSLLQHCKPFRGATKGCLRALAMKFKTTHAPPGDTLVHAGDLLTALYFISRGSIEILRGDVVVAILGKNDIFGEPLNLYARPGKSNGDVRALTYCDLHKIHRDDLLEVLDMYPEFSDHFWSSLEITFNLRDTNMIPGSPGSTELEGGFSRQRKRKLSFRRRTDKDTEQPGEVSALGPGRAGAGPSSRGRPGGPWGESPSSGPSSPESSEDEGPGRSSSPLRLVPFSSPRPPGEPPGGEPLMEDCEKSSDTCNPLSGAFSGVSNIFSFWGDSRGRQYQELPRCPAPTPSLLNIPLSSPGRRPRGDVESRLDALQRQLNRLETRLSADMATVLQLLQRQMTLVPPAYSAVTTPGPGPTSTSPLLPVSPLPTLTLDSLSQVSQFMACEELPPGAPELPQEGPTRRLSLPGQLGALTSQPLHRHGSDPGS
row,Structure (SMILES),"hERG current change (%, negative = inhibition) at 1uM [%]"
1,CCC(=O)N1CCc2cc(Br)cc(S(=O)(=O)CCC(=O)NCC3CCCO3)c21 (stereo not shown),14.4
2,Cc1ccc2nc(SCC(=O)NCc3ccco3)c(C#N)cc2c1,10.8
3,Cc1nnsc1C(=O)N1CCCC(N2CCN(c3cccc(C(F)(F)F)c3)CC2)C1 (stereo not shown),3.26
4,COc1ccc(CNc2nnnn2C)cc1,18.6
5,O=C(Nc1ncc(Cc2ccccc2)s1)C1COc2ccccc2O1 (stereo not shown),8.47
6,Cc1cc(C)nc(Nc2n[nH]c(COc3ccc(Cl)cc3)n2)n1,-4.88
7,CCC1(C)C(Nc2c(C)cccc2C)=NC(=S)N1c1ccc(NC(C)=O)cc1 (stereo not shown),10.5
8,CCCC(C)NC(=O)CN(Cc1ccco1)S(=O)(=O)c1ccccc1 (stereo not shown),11.5
9,CC1(C)Cc2cccc(OCC(=O)NCCc3ccc(S(N)(=O)=O)cc3)c2O1,6.49
10,CCOc1ccc(CNC(=O)c2cccc(NC(=O)C3=C(C)OCCS3)c2)cc1,11.4
11,Cc1cccc(NC(=O)C2CCN(c3nccc(C)n3)CC2)c1,14
12,Cc1ccc(S(=O)(=O)N2CCN(S(C)(=O)=O)C2C)cc1 (stereo not shown),7.04
13,Cc1nc2nc(C)c(NS(=O)(=O)c3ccc(CC(C)C)cc3)c(=O)n2[nH]1,14.6
14,Cc1ccc(-c2nsc(SCC(=O)NCc3ccc4c(c3)OCO4)n2)cc1,15.2
15,CC1(C)Cc2c(C#N)c(SCc3ccccc3)nc(N3CCOCC3)c2CO1,-7.77
16,COC(=O)C1=C(C(=O)OC)C2(OC1c1ccc(Br)cc1)C(=O)c1ccccc1C2=O (stereo not shown),13.6
17,CCOC(=O)c1ccc(NC(=O)CC2S/C(=N/N=C/c3c[nH]c4ccccc34)NC2=O)cc1 (stereo not shown),2.45
18,CC(C)(C)c1ccc(C(=O)OCCN2CCCCC2)cc1.Cl,-9.85
19,COc1ccccc1N1CCN(C(=O)Cc2ccc(Cl)cc2)CC1,10.4
20,O=C(CN(C1CCCCC1)S(=O)(=O)c1ccc(F)cc1)Nc1ccc2c(c1)OCO2,9.66
21,NS(=O)(=O)c1ccc(CCNC(=O)c2ccc(Cl)nc2)cc1,14.9
22,CN(C)C(CNc1ccc(S(C)(=O)=O)cc1[N+](=O)[O-])c1ccccc1 (stereo not shown),6.49
23,COC(=O)c1c(C)[nH]c(C(=O)CN2CCOCC2)c1C,12.5

row,Structure (SMILES),"hERG current change (%, negative = inhibition) at 1uM [%]"
1,COc1ccc(CCNC(=O)COc2ccc(-c3ccc(C#N)cc3)cc2)cc1,14.9
2,COCCNC(=S)N1CCCC(CO)C1 (stereo not shown),7.34
3,CCCCN(C)CCCNC(=O)CN1C(=O)CSc2ccc(S(=O)(=O)N3CCOCC3)cc21,7.69
4,O=C(CCCc1cccs1)NCCc1c[nH]c2ccccc12,10.6
5,c1csc(C2Nc3cccc4cccc(c34)N2)c1,4.56
6,Cc1cc(C(=O)NCc2cccc(Cl)c2)c2ccccc2n1,17.7
7,C=CCN1C(=O)C(CCCC)NC1=S (stereo not shown),7.96
8,CN(C)/C=C/C(=O)C(F)(F)F,2.94
9,OCCC1CN(Cc2cccc3c2OCO3)CCN1C1CCCCC1 (stereo not shown),15.4
10,CN(C)c1ccnc2sc(C(=O)c3ccccc3)c(N)c12,0.0674
11,O=C(NNC(=O)C1CC2CCC1C2)c1ccccc1 (stereo not shown),15.4
12,CCOC(=O)CSc1cc(C)nc(NC(C)=O)n1,1
13,COc1ccccc1OCC(=O)OCC(=O)Nc1sccc1C(N)=O,5.11
14,COc1cc2c(cc1OC)C(Cc1ccc(O)cc1)N(C)CC2 (stereo not shown),5.25
15,CN1CCCCc2c1nc1c(c2N)CCCC1,0.539
16,COc1ccccc1NC(=O)c1c(N=Cc2c(O)ccc3ccccc23)cnn1C,14.4
17,O=S1(=O)CCOC[C@H](CC2CCCCC2)N1Cc1cccc(F)c1,14.6
18,O=S(=O)(Nc1cccc(S(=O)(=O)N2CCOCC2)c1)c1ccc(Cl)s1,8.6
19,O=C1C2C3C=CC(C3)C2C(=O)N1c1ccc2c(c1)OCO2 (stereo not shown),-3.98
20,COCCNC(=O)C(c1ccc(Cl)cc1)N(Cc1ccco1)C(=O)CCC(=O)Nc1ccccn1 (stereo not shown),1.56
21,O=C(Nc1ccc2c(c1)OCCO2)C1CCN(c2cnccn2)CC1,8.99
22,COc1cccc(NC(=O)Nc2ccc3nsnc3c2)c1,16.5
23,CN(Cc1ccccc1)C(=O)Cn1nc(C(F)(F)F)c2c1CCC2,7.05
